# Measurements taken from PubChem BioAssay AID504832 (National Center for Advancing Translational Sciences (NCATS), 2011).
# Out of some 310,000 compounds screened, about 18,000 (5.8%) were called active. The inconclusive results got no clear call from the source; some entries with a clear call stand among them for comparison. Calls follow the shape of the dose curve; as a rule, active = well fitted inhibition curve with a large enough effect; inconclusive = small, poorly fitted or top-dose-only effect, or another doubt; inactive = no such curve, though single readings can be large or run the other way. No potency is given beside an inconclusive call; the fits are too rough.
# Test: Primary qHTS for delayed death inhibitors of the malarial parasite plastid, 48 hour incubation
# Details: P. falciparum luciferase growth in erythrocytes; series mostly up to 28.7 µM
# Method in brief: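 Erythrocytes infected with P. falciparum carrying an integrated firefly luciferase reporter (2% hematocrit, 0.1% parasitemia final) were exposed to compounds in RPMI 1640 with 0.5% Albumax at 37 C, 5% CO2. Growth inhibition was scored as reduced luminescence.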
# Potency is read from the fitted curve at half-maximal effect; tags tell the direction and shape of the fitted curve.
row,SMILES,Potency
1,O=C1c2ccccc2C(=O)N1CCCCSc1nnnn1-c1ccccc1,inactive
2,CSCCC(N=C1NS(=O)(=O)c2ccccc21)C(=O)N1CCCC(C(N)=O)C1 (stereo unspecified),inactive
3,Cc1cc(C(=O)Nc2ccc3c(c2)OCO3)no1,"inconclusive [inhibitor, partial curve]"
4,COC(=O)[C@@H]1C[C@@H]2CC[C@@H](O)C[C@@H]2N1Cc1ccc(OC)cc1,"inconclusive [inhibitor, single point]"
5,C/C(CC(=O)Nc1ccc(C)c(Cl)c1)=N\NC(=O)Cc1cnc(N)s1,inactive
6,CC(C)(C)c1cc(CN(CCO)CCO)c(O)c(C(C)(C)C)c1,"inconclusive [inhibitor, partial curve]"
7,CCc1ccc(NC(=O)C2CC(=O)N(C(C)C)C2)cc1 (stereo unspecified),inactive
8,COc1ccc(C2C(C#N)=C(N)N(c3sc4c(c3C#N)CCCC4)C3=C2C(=O)CC(C)(C)C3)cc1 (stereo unspecified),active: 6.57 µM
9,CCCCSc1nnc2n(CCc3ccccc3)c(=O)c3c4c(sc3n12)COC(C)(C)C4,inactive
10,CCCCOc1ccc(Cl)cc1CSc1nncn1N,"inconclusive [inhibitor, full curve, poor fit]"
11,CCOCCCn1c(=S)[nH]c2cc(C(=O)NCCN(CC)CC)ccc2c1=O,"inconclusive [inhibitor, single point]"
12,O=c1cc(C(F)(F)F)[nH]c2ccc(OC(F)(F)F)cc12,"inconclusive [inhibitor, partial curve, poor fit]"
13,COc1ccc(NCc2nnc(SCc3ccccc3)n2-c2ccc(OC)cc2)cc1,"inconclusive [inhibitor, partial curve, poor fit]"
14,Cn1c(=O)c2c(nc(NCCCO)n2C/C=C/c2ccccc2)n(C)c1=O,"inconclusive [inhibitor, partial curve, poor fit]"
15,CN1CCN(S(=O)(=O)c2ccc(NC(=O)Nc3cccc(Cl)c3)cc2)CC1,active: 2.94 µM
16,COc1cc(/C(=C/c2ccccc2)c2ccccc2)c2c(c1)oc1ccccc12,"inconclusive [inhibitor, single point]"
17,Cn1c(CO)cnc1SCC(=O)c1ccc(F)cc1,inactive
18,COc1ccc(NC(=O)NC23CC4CC(CC(C4)C2)C3)cc1OC,"inconclusive [inhibitor, single point]"
19,O=C1CC(=O)N(Cc2ccco2)C(=O)N1,inactive
20,Cc1nnc(Sc2cc(NCCO)c([N+](=O)[O-])c3nonc23)s1,"inconclusive [inhibitor, single point]"
21,CN(CC(=O)Nc1ccccc1Br)C(=O)CCSc1ccc(F)cc1,"inconclusive [inhibitor, single point]"
22,CCOc1cc(N2CCOCC2)c(OCC)cc1NS(=O)(=O)c1ccc(Cl)s1,"inconclusive [inhibitor, single point]"
23,COc1cccc(C(=O)Nc2ccc3nc(N4CCN(c5ncccn5)CC4)cc(C)c3c2)c1OC,"inconclusive [inhibitor, single point]"

row,SMILES,Potency
1,CC1NC2(C(=O)N(Cc3ccccc3)c3ccccc32)C2C(=O)N(c3ccccc3)C(=O)C12 (stereo unspecified),"inconclusive [inhibitor, partial curve]"
2,C=CCOC(=O)C1=C[C@@H](c2cn(C(C)=O)c3ccccc23)C[C@@H](OCCCCO)O1,"inconclusive [inhibitor, full curve, poor fit]"
3,CCN(Cc1ccccc1)S(=O)(=O)c1c(C(=O)N2CCCC2)c(C)n(C)c1C,inactive
4,COc1ccc(C(=O)NCCC2=CCCCC2)cc1OC1CCN(C(C)C)CC1,"inconclusive [inhibitor, single point]"
5,CC(C)(C)c1ccc(OCc2ccc(C(=O)Nc3cccnc3)o2)cc1,"inconclusive [inhibitor, single point]"
6,Cc1nc(S(=O)(=O)N(C)c2ccccc2)c(C#N)c(C)c1Cl,"inconclusive [inhibitor, partial curve]"
7,CCc1cc2c(=O)c(-c3nc4ccccc4[nH]3)coc2c(CN2CCCCC2C)c1O (stereo unspecified),active: 1.47 µM
8,CN(C)c1ccc(NC(=S)NC(=O)/C=C/c2ccc(Cl)cc2)cc1,inactive
9,C[C@@H]1C[C@@H]2OC(=O)[C@]3(C)[C@H]2[C@@H](OC3(C)O)[C@]2(C)C(=O)C=C[C@H]12 (stereo partly specified),active: 13.1 µM
10,O=C(N/N=C/c1ccccn1)c1cc(-c2ccccc2Cl)n[nH]1,"inconclusive [inhibitor, partial curve]"
11,O=C(C1CCCCCC1)N1CC[C@@H](N2CCC(O)CC2)[C@H](O)C1,inactive
12,Cc1ccc(C(C2C(=O)CC(C)(C)CC2=O)C2C(=O)CC(C)(C)CC2=O)s1,inactive
13,CN=C(Nc1ccc(C)c(C)c1)SC1CC(=O)N(c2ccc(OC)cc2)C1=O (stereo unspecified),active: 11.7 µM
14,CCOC(=O)N1CCC(N2Cc3cccc(C(=O)N4CCN(c5cccc(Cl)c5)CC4)c3C2=O)CC1,inactive
15,O=c1oc2ccccc2c(Nc2ccccc2O)c1[N+](=O)[O-],"inconclusive [inhibitor, single point]"
16,O=C(NCCc1ccc(F)cc1)N[C@@H](Cc1ccccc1)C(=O)O,inactive
17,CCOC(=O)C1CCN(C(=O)CC2(CC(=O)O)CCCC2)CC1,inactive
18,N#Cc1c(N)nc2c(c1N)CC(COc1ccccc1)O2 (stereo unspecified),inactive
19,COc1ccc(C)cc1NS(=O)(=O)c1ccc(-c2cnc(C3CC3)o2)cc1,"inconclusive [inhibitor, single point]"
20,CCc1ccc(NS(=O)(=O)c2ccc(OC)c3ncccc23)cc1,inactive
21,Cc1ccc(NC(=O)COc2coc(CN3CCc4ccccc4C3)cc2=O)c(C)c1,"inconclusive [inhibitor, partial curve]"
22,CC(C)(C)c1ccc(NC(=O)COC(=O)c2ccc(NS(=O)(=O)c3ccc(F)c(F)c3)cc2)cc1,inactive
23,Cn1c(=O)c2c(nc(NCc3cccnc3)n2Cc2ccccc2Cl)n(C)c1=O,"inconclusive [inhibitor, single point]"
